# Assay results reported in PubChem BioAssay AID485294 (National Center for Advancing Translational Sciences (NCATS), 2010).
# The campaign covered roughly 370,000 compounds. About 150 (0.041%) were called active. Inconclusive means that the source gave no clear call. Such entries were picked first, then a sample of the others. Calls follow the shape of the dose curve; as a rule, active = well fitted inhibition curve with a large enough effect; inconclusive = small, poorly fitted or top-dose-only effect; inactive = flat fitted curve, though single readings scatter. Potencies of inconclusive entries are left out as doubtful fits.
# Target: Beta-lactamase (Escherichia coli (strain K12)) (UniProt P00811)
# Assay: qHTS Inhibitors of AmpC Beta-Lactamase (assay with detergent); also: nearly all actives have a fitted effect of over 25% in size;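 as to activity change, negative = inhibition: 0% = no-compound wells and -100% = no-enzyme wells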
# Conditions: AmpC hydrolysis of nitrocefin, absorbance 480 nm, 0.01% Triton; activity change, negative = inhibition: at 114 µM (top of the series)
# Summary of the method: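 20 mM phosphate pH 7.0 + 0.01% (detergent screen) or 0.0001% Triton X-100; 5.3 nM AmpC reagent; cpd preinc 15 min RT; nitrocefin (800 uM stock) to start; A480 q20 s × 4 min; Activity was normalised to no-enzyme and no-compound control wells.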
# Potency is read from the fitted curve at half-maximal effect; tags tell the direction and shape of the fitted curve.
# UniProt P00811, sequence (P00811 whole entry, looked up): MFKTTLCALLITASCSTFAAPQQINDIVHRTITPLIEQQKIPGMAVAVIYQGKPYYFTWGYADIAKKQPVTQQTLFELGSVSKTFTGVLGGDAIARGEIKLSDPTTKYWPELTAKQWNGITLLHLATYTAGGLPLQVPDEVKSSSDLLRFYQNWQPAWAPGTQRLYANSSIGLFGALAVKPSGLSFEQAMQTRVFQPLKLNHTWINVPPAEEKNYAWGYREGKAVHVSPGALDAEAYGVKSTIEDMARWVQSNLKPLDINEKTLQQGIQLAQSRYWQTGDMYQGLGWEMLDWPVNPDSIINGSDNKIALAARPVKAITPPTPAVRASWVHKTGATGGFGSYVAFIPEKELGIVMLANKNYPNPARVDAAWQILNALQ
Compound,"activity change, negative = inhibition",Potency
O=C(CCSCc1ccccc1Cl)N1CCN(c2ccccn2)CC1,inactive: -13.1%,
O=C1CC(c2cccs2)Sc2nc3ccccc3n21 (stereo not given),inactive: -5.5%,
COc1ccc2cc(CN(CCO)C(=O)c3ccc(Br)cc3)c(=O)[nH]c2c1,,"inconclusive [inhibitor, single point]"
CNCCCOc1ccc(C)cc1Br,,"inconclusive [inhibitor, single point]"
Cc1nn(-c2ccc(C(=O)NCC(c3ccco3)N3CCCC3)cc2)c(C)c1Cl (stereo not given),inactive: -12.2%,
CC1=NN(c2ccccc2)C(=O)/C1=C/c1cc(C)n(C2CC2)c1C,inactive: 0.828%,
Cc1cccc(NC(=O)C2CCN(S(=O)(=O)c3ccc(Cl)cc3)CC2)n1,inactive: -21.5%,
O=Cc1ccc(Oc2nc(Cl)ncc2F)cc1,,"inconclusive [inhibitor, partial curve, poor fit]"
S=C(NCc1ccco1)Nc1ccc(Cl)c(Cl)c1,inactive: -2.48%,
COC(=O)c1cc(NC(=O)C2(S(=O)(=O)c3ccc(C)cc3)CC2)cc(C(=O)OC)c1,,"inconclusive [inhibitor, single point]"
CC(=O)NCC(=O)OCC(=O)c1ccc(C)cc1,,"inconclusive [inhibitor, partial curve, poor fit]"
Cc1cc(O)c(C(C)C)cc1NC(=O)c1ccc(Cl)cc1,,"inconclusive [inhibitor, partial curve, poor fit]"
CN(C)CCCn1c(SCC(=O)Nc2nc(-c3cccc(Br)c3)cs2)nc2ccccc2c1=O,inactive: 4.64%,
CC(=O)c1cccc(OCc2cc(C(=O)N(C)Cc3ccc(C)o3)no2)c1,inactive: 1.66%,
Cn1cc(SCC(=O)N2CCOCC2)c2ccccc21,,"inconclusive [inhibitor, full curve, poor fit]"
O=C(NCCc1ccc(F)cc1)C(=O)NCC(c1ccco1)S(=O)(=O)c1ccccc1 (stereo not given),inactive: 2.7%,
C/C(=N\NC(=O)c1nn(C)c(C)c1Br)c1ccc(NC(=O)c2ccc(C)s2)cc1,inactive: 1.75%,
O=C(Cn1c(=O)n(Cc2ccco2)c(=O)c2c3c(sc21)CCCCC3)c1ccccc1,,"inconclusive [inhibitor, full curve, poor fit]"
COC(=O)c1ccccc1NC(=O)CN(C)S(=O)(=O)c1ccc(OC)c(C)c1,,"inconclusive [inhibitor, single point]"
C/C(=N\NC(=O)c1ccccc1)c1ccc(N2CCCCC2)cc1,,"inconclusive [inhibitor, single point]"
O=C(CSc1nc(O)cc(=O)n1-c1ccccc1)c1ccc(Br)cc1,inactive: 2.42%,
Clc1ccc(Cc2nnc(-c3ccccc3Br)o2)cc1,,"inconclusive [inhibitor, full curve]"
COCCCn1c(SCC(=O)N2CCc3ccccc32)nnc1-c1ccco1,,"inconclusive [inhibitor, full curve, poor fit]"

Compound,"activity change, negative = inhibition",Potency
COC(=O)C1CCN(C(c2cc(OC)c(OC)c(OC)c2)c2sc3nc(C)nn3c2O)CC1 (stereo not given),,"inconclusive [inhibitor, partial curve]"
O=C(NCCc1ccccc1)C1CCC(=O)N(CCCN2CCCC2=O)C1 (stereo not given),,"inconclusive [inhibitor, single point]"
Cc1oc(-c2cccs2)[n+]([O-])c1C,,"inconclusive [inhibitor, full curve]"
Cc1ccc(-c2csc(NC(=O)C3CC(=O)N(Cc4ccco4)C3)n2)cc1 (stereo not given),,"inconclusive [inhibitor, partial curve, poor fit]"
COc1ccc(CCNC(=O)c2ccc3c(c2)CCN3S(=O)(=O)c2ccccc2)cc1,inactive: 12%,
COc1ccc(CC(=O)NCC(=O)Nc2ccccc2Br)cc1,,"inconclusive [inhibitor, full curve, poor fit]"
CC(=O)CCC(=O)c1ccc2ccccc2c1,,"inconclusive [inhibitor, full curve, poor fit]"
CN(C)c1nc(C(=O)Nc2ccccc2)nc(N(C)C)n1,,"inconclusive [inhibitor, full curve, poor fit]"
Cc1ccc(S(=O)(=O)N2CCN(C(=O)Cc3sc(C)nc3-c3ccc(F)cc3)CC2)c(C)c1,,"inconclusive [inhibitor, full curve, poor fit]"
CCC(=O)Nc1ccc(N2CCN(Cc3ccccc3)CC2)cc1,,"inconclusive [inhibitor, full curve, poor fit]"
Cc1nc2ccc(NC(=O)c3ccc([N+](=O)[O-])cc3)cc2[nH]1,,"inconclusive [inhibitor, partial curve, poor fit]"
Cc1ccc(OCC(=O)N/N=C2\CCOc3c(C)cccc32)cc1,inactive: -15.2%,
COc1ccc(-c2ccc(NS(=O)(=O)c3ccc(NC(C)=O)cc3)cc2)nn1,inactive: 5.69%,
Cc1cc(OCC(=O)NC(C)C)cc(C)c1Br,,"inconclusive [inhibitor, partial curve]"
C=CCc1c(C)nc(SCC(=C)C)[nH]c1=O,,"inconclusive [inhibitor, full curve, poor fit]"
COc1ccc2c(c1)O[C@@H](c1cccc(C(F)(F)F)c1)[C@H](O)C2=O,,"inconclusive [inhibitor, full curve]"
O=C(CSc1nnc(-c2ccccn2)n1Cc1ccco1)c1ccc(-c2ccccc2)cc1,,"inconclusive [inhibitor, partial curve, poor fit]"
O=C(COc1ccccc1)Nc1cc(C(F)(F)F)ccc1N1CCCC1,inactive: -2.82%,
[O-][n+]1c2ccccc2[n+]([O-])c2cc(O)ccc21,,"inconclusive [inhibitor, single point]"
CCCCSc1nc2sc3c(c2c(=O)[nH]1)CC(C)(CC)OC3 (stereo not given),,"inconclusive [inhibitor, single point]"
CC(=O)N(C)N1c2ccccc2CCc2ccccc21,,"inconclusive [inhibitor, single point]"
CCCN1C(=O)C(NC(=O)c2ccncc2)(C(F)(F)F)C2=C1CC(C)(C)CC2=O (stereo not given),,"inconclusive [inhibitor, full curve, poor fit]"
